Test results reported in PubChem BioAssay AID504832 (National Center for Advancing Translational Sciences (NCATS), 2011).
The whole screen tested about 310,000 compounds, of which about 18,000 (5.8%) were called active. This list was built around the results that the source calls inconclusive (neither active nor inactive); the mix of calls is not that of the screen. Calls follow the shape of the dose curve; as a rule, active = well fitted inhibition curve with a large enough effect; inconclusive = small, poorly fitted or top-dose-only effect, or another doubt; inactive = no such curve, though single readings can be large or run the other way. Potencies of inconclusive entries are left out as doubtful fits.

Assay: Primary qHTS for delayed death inhibitors of the malarial parasite plastid, 48 hour incubation
Details: P. falciparum luciferase growth in erythrocytes; series mostly up to 28.7 µM
Outline: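 Cell-based growth assay: transgenic P. falciparum expressing firefly luciferase, cultured in red cells within RPMI 1640 containing 0.5% w/v Albumax, 24 mM bicarbonate and gentamycin. A drop in luciferase activity indicates inhibition.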
Potency is read from the fitted curve at half-maximal effect; tags tell the direction and shape of the fitted curve.

Compound	Potency
COc1ccc(N2CC(C(=O)Nc3cc(C)ccn3)CC2=O)cc1 (stereo not drawn)	inactive
CN(C)CCN(Cc1ccco1)C(=O)c1oc2ccccc2c1NC(=O)COc1ccccc1	inconclusive [inhibitor, single point]
C#CCOCCOCCOCCNc1nc(N2CCN(C(=O)[C@H](Cc3ccc(O)cc3)n3cc([C@@H](N)CC(C)C)nn3)CC2)nc(N2CCN(C(=O)[C@H](Cc3ccc(O)cc3)n3cc([C@@H](N)CC(C)C)nn3)CC2)n1	active: 9.28 µM
Cc1ccc(C(=O)N2C(CC(=O)Nc3ccc(Cl)cc3)C(=O)NC3CCCCC32)cc1 (stereo not drawn)	inconclusive [inhibitor, partial curve]
Cc1oc(-c2ccc(Cl)cc2)nc1CS(=O)CC(=O)NCCN1CCCCCC1 (stereo not drawn)	inconclusive [inhibitor, partial curve, poor fit]
COc1cccc(/C=N/NC(=O)c2cc3c(OC)cccc3[nH]2)c1O	inconclusive [inhibitor, partial curve, poor fit]
CCOC(=O)C1CCN(C(=O)c2cc(S(=O)(=O)N(C)C)ccc2N2CCCC2)CC1	inconclusive [inhibitor, full curve, poor fit]
CCOc1ccc(N(C(=O)c2ccc(S(=O)(=O)N3CCCC3)cc2)C2C=CS(=O)(=O)C2)cc1 (stereo not drawn)	inconclusive [inhibitor, single point]
O=C(c1ccc(F)cc1)N1CCC(C(=O)N2CCN(S(=O)(=O)c3cccc(Cl)c3)CC2)CC1	inconclusive [inhibitor, partial curve]
Cc1ccc(-n2cccn2)cc1	inactive
CCC1CCCCN1S(=O)(=O)c1ccc2c(c1)CCN2C(C)=O (stereo not drawn)	inactive
O=C(N/N=C/c1ccccn1)c1ccc2nc[nH]c2c1	inactive
CCc1ccc(NC(=O)c2cnn(-c3ccccc3)c2C2CCNCC2)cc1	inconclusive [inhibitor, partial curve, poor fit]
CCC1=Nc2cc(C(=O)NCCCN3CCOCC3)ccc2Sc2ccccc21	inconclusive [inhibitor, partial curve, poor fit]
COc1ccc(CCNC(=O)COC(=O)C23CC4CC(CC(Br)(C4)C2)C3)cc1	inconclusive [inhibitor, partial curve]
CCOC(=O)c1ccc(NC(=O)COc2ccc(CNC3CCCCC3)cc2OC)cc1	active: 4.65 µM
O=C(CNS(=O)(=O)/C=C/c1ccccc1)OC1CCOC1=O (stereo not drawn)	inactive
CC(=O)C1=C(O)C(=O)N(c2ccc(Br)cc2)C1c1ccccc1[N+](=O)[O-] (stereo not drawn)	inconclusive [inhibitor, full curve, poor fit]
COc1ccc(Br)cc1CN(C)C(=O)Cc1ccc(OC)c(S(=O)(=O)N2CCOCC2)c1	inconclusive [inhibitor, partial curve, poor fit]
Cc1oc(-c2cccc3ccccc23)nc1CN1CCN(c2ncnc3ccccc23)CC1	inconclusive [inhibitor, single point]
O=C(Nc1cccnc1)c1cccnc1	inactive
C/C(=C\c1ccco1)C1C(C#N)=C(N)OC2=C1C(=O)CC(C)(C)C2 (stereo not drawn)	inconclusive [inhibitor, partial curve, poor fit]
CCCCn1c(NC(=S)Nc2ccccc2)nc2ccccc21	active: 5.22 µM

Compound	Potency
CC1(CCC#N)N=C(SCCC#N)N(c2ccccc2)C1=O (stereo not drawn)	inactive
CCc1ccc(NC(=O)c2ccc(-n3cncn3)c([N+](=O)[O-])c2)cc1	active: 11.7 µM
C/C(=N\NC(=O)NC1CCCCC1)c1ccc(Cl)s1	inconclusive [inhibitor, full curve]
CC1(C)CC(=O)C(C(c2ccc(F)cc2)C2C(=O)CC(C)(C)CC2=O)C(=O)C1	inactive
C=CCn1c(O)c(C=NCCCOc2ccc(CC)cc2)c(=O)[nH]c1=S	inconclusive [inhibitor, single point]
COc1ccccc1/C=C/C(=O)c1ccc(Cl)cc1	inconclusive [inhibitor, single point]
CCc1ccc(-c2cc(C(=O)Nc3c(C)n(C)n(-c4ccccc4)c3=O)c3ccccc3n2)s1	inconclusive [inhibitor, single point]
N#Cc1c(-c2ccco2)ccn(Cc2cccc(F)c2)c1=O	inconclusive [inhibitor, single point]
CC1CC(C)CN(C(=O)CCC(=O)Nc2nnc(C(C)C)s2)C1 (stereo not drawn)	inconclusive [inhibitor, partial curve, poor fit]
Cc1ccc(NC(=O)c2cc(-c3ccc(C)o3)nc3ccccc23)cc1	inconclusive [inhibitor, single point]
O=C(CCCc1ccccc1)NC1CCSC1=O (stereo not drawn)	inconclusive [inhibitor, single point]
CC1(C)CC(=O)C2=C(C1)N(N1CCOCC1)C(N)=C(C#N)C2c1cccnc1 (stereo not drawn)	inactive
Nc1c2c(nc3sc4c(c13)CCCC4)-c1ccccc1CC2	inactive
COC(=O)c1ccc(C(=O)NC2CCCc3c2cnn3-c2ccccc2F)nc1 (stereo not drawn)	inactive
O=c1c(-c2ccc(Cl)cc2)c[nH]n1-c1ccccc1	active: 8.28 µM
Cc1ccc(C)c(Nc2c([N+](=O)[O-])c(=O)oc3ccccc23)c1	inconclusive [inhibitor, partial curve, poor fit]
O=C(Nc1ccccc1Cl)NC1(C(=O)N2CCC(O)CC2)CCCCC1	inactive
COc1cc(C(=O)NCCSc2ccc(Br)cc2)cc(OC)c1OC	inconclusive [inhibitor, full curve, poor fit]
CN(C)S(=O)(=O)c1ccc(C(=O)Nc2ccccc2OC(F)(F)C(F)F)cc1	inconclusive [inhibitor, single point]
Cc1ccc(SCC(=O)N2N=CCC2c2ccccc2)cc1 (stereo not drawn)	inconclusive [inhibitor, partial curve]
C=CCC(=O)N1CCCC(CO)(Cc2ccc(F)cc2F)C1 (stereo not drawn)	inconclusive [inhibitor, full curve, poor fit]
O=C(Nc1ccc(N2CCCC2)cc1)c1ccc(Br)o1	inconclusive [inhibitor, single point]
Cc1ccc(-n2c(C)nnc2SC(C)C(=O)N2CCCC2)cc1 (stereo not drawn)	inactive

Compound	Potency
Cc1cccc2c1cnn2C(=O)CCC(=O)NCC(C)c1ccccc1 (stereo not drawn)	inactive
O=C1OC(/C=C/c2ccccc2)=NC/1=C/C=C/c1ccccc1	inactive
CCC(CC)NC(=O)CON=C1c2ccccc2-c2ccccc21	active: 13.1 µM
CC(C)(C)c1ccc(/C=N/NC(=S)NCc2ccccc2)cc1	inconclusive [inhibitor, single point]
Cc1ccc(S(=O)(=O)N(C)c2ccc(OCC(=O)NCC3(N(C)C)CCCCC3)cc2)cc1	active: 9.28 µM
Cc1ccc(S(=O)(=O)Nc2ccccc2F)cc1C(=O)N1CCN(c2ccccc2O)CC1	inconclusive [inhibitor, single point]
O=c1ccc(-c2ccc(S(=O)(=O)NCC3CCN(Cc4ccccc4F)CC3)s2)n[nH]1	inconclusive [inhibitor, partial curve]
Cc1cc(C(=O)NNc2cc(Cl)ccc2Cl)no1	inactive
Cc1cc(C(=O)N/N=C/c2ccc(-c3cccc(Cl)c3)o2)n[nH]1	inconclusive [inhibitor, partial curve, poor fit]
CN(CC(=O)Nc1ccc(Cl)c(C(F)(F)F)c1)C(=O)Cc1cccs1	inconclusive [inhibitor, single point]
CC(C)C[C@H](NC(=O)c1nc[nH]c1C(=O)N1CCC(C)CC1)C(=O)OC(C)(C)C	inconclusive [inhibitor, single point]
Cc1ccc(CCNCc2c(C(=O)O)c(C)n(-c3ccccc3)c2C)cc1	inactive
O=C(CSc1ncnc2sc3c(c12)CCCCC3)NCc1ccco1	inactive
COc1ccc(OC)c2sc(N(CCN(C)C)C(=O)/C=C/c3cccs3)nc12	inconclusive [inhibitor, single point]
Cc1ccc(S(=O)(=O)N2CCN(C(=O)c3ccccc3)C2C(C)C)cc1 (stereo not drawn)	inconclusive [inhibitor, single point]
CCC(C)(C)NC(=O)c1ccc(S(=O)(=O)N2CCCCCC2)cc1	inconclusive [inhibitor, full curve, poor fit]
O=C(CCCn1ncn2c(cc3occc32)c1=O)N1CCc2ccccc2C1	inconclusive [inhibitor, single point]
CCN(CC)C(=O)/C(NC(=O)c1ccccc1)=C(/Sc1ncccn1)c1ccccc1	inconclusive [inhibitor, partial curve, poor fit]
Cc1ccc(C(=O)Nc2ccc(NC(=O)c3cccs3)cc2)c(C)c1	inconclusive [inhibitor, partial curve, poor fit]
Cc1cc(NC(=O)c2c(F)cccc2Cl)n(-c2nc3ccccc3[nH]2)n1	active: 10.4 µM
CC(C)c1cc(C(=O)N/N=C/c2ccoc2)cs1	inactive
CCOC(=O)C1=C(CNCc2ccc(C)cc2)NC(=O)NC1c1ccc(OC)cc1 (stereo not drawn)	inconclusive [inhibitor, single point]
